# Reference: article PMC12136788
# The other results are listed elsewhere or left out.
# T1: UNK ZnF1-3 (human, UniProt Q9C0B0 31-174)
# T1 sequence: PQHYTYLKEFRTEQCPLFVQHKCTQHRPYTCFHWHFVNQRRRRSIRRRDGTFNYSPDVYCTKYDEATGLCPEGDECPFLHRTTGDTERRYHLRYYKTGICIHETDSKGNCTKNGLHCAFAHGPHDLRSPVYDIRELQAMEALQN
# B1: chr10:10886374:10886375:+_ENSMUSG00000090112_ENSMUST00000044053|mus_mus|motif|central (ssRNA)
# RNA: GGGAGUUCUACAGUCCGACGAUCAUGUGGGAUAUUGACAUAGUUUAGUUCUGAACGAAGAACAUCAUAGGUAAUGAUAACGGUAUCUUGUUCUGCCAAAAAAUGAGGCUGUAAGAAGCCGUGUUUCUUCACUCCUUGAUAUACCAACAGAGGAUUGAGCAUCA
# B2: chr8:95500983:95500984:-_ENSG00000164944_ENST00000437199|hu_hu|hu_hu_hu_mus_True|1_1 (ssRNA)
# RNA: GGGAGUUCUACAGUCCGACGAUCAGAACACAUCUAUCGAGUAAAGGACCGUACAUGACGGCCUCUACCACUGCCUCCACUAACAAACUUUCCUCUCGAGCCUCCACUGCCGCUAUUUGUACUAGCCCAGGACGGUCCCAAGUCCAACAGAGGAUUGAGCAUCA
# B3: chr4:95690885:95690886:+_ENSMUSG00000028572_ENSMUST00000156910|mus_mus|mus_mus_mus_hu_False|1_18 (ssRNA)
# RNA: GGGAGUUCUACAGUCCGACGAUCUUUAGAAAAUGUUAAAUACCAUGCUAAAAUAUUUUCAAAGGCUUAUUUUAUUUUACCAGAAGUCACAGGCAAGCAGACACUACAAGAAUAUAUAAAUACAAACCUCAACAAUAAAAUGUACAACAGAGGAUUGAGCAUCA
# B4: 18810149_18812865_195_3pUTR_ENSG00000170540_ENST00000304414|human|control|control (ssRNA)
# RNA: GGGAGUUCUACAGUCCGACGAUCCUGCAGCCAGCAGGUUGGUGCUGCGAUUAUCUCCCUCCGCCAUCGUCUCGGGGAUGCAGUCUCUACAAGCGCAGGCCACCUCCCCAACGAGUCCUCCAACCGAAACCCGCACACCAACCACAACAGAGGAUUGAGCAUCA
# B5: chr1:63494365:63494366:+_ENSMUSG00000025964_ENSMUST00000114107|mus_hu|motif|central (ssRNA)
# RNA: GGGAGUUCUACAGUCCGACGAUCUGAAGGCAGUGUGAUUUCUUUCUGCAUUGCAUUGCUGUAACUGAUAUUACUGCUGCGGUUCUGUUGCAAUGUAUUGUCUUCAUCUGCCAGGACUCCCAAAUUUUUUUCUGCAGUUUCAUUCAACAGAGGAUUGAGCAUCA
# B6: chr4:39523128:39523129:-_ENSG00000109814_ENST00000316423|hu_mus|FALSE|FALSE (ssRNA)
# RNA: GGGAGUUCUACAGUCCGACGAUCGCACGUGGGUCCGCCGACAUAGCCCGCACCAAUGCAACAGAUCUUCUUAAUCUCAACCAUGACUGAACCACUUCCAAAGCAGGGACACAGCGGCCGUGCAGAUCCCGUUCUCUCGGACAGCAACAGAGGAUUGAGCAUCA
# B7: chr19:30213842:30213843:-_ENSMUSG00000024827_ENSMUST00000025778|mus_mus|motif|central (ssRNA)
# RNA: GGGAGUUCUACAGUCCGACGAUCAAUGUGCUUCAGCCCCUGGGAUCCAUGGUAAAUGGCGAACAUGGCAGCCAUGUUGGCGGAAAGGGCCUGAGCCGUGCAGAUGUUGCUGGUGGCUUUGUCUCUCCGGAUGUGUUGUUCUCUCAACAGAGGAUUGAGCAUCA
# B8: chr19:47610742:47610743:-_ENSMUSG00000042694_ENSMUST00000049369|mus_mus|motif|central (ssRNA)
# RNA: GGGAGUUCUACAGUCCGACGAUCUGGCACUUGUUGGGACUCCUUCAUCUCCAGGAUAUCCUUGAUGUAGAGUUUUGCAAAGGCGGGAAACACAGGAUCCAGACCCCAAAAGAGGGGCGGGAUCUCCUCUUCCCUUGGACUGGACAACAGAGGAUUGAGCAUCA
# B9: chr1:109605286:109605287:-_ENSG00000197780_ENST00000461096|hu_mus|hu_hu_hu_mus_True|1_68 (ssRNA)
# RNA: GGGAGUUCUACAGUCCGACGAUCAAGUUUCAGAGUAACAUUCAGUAACCUCUUUAAAUGCAAUUAUCCUUACUUUAAGCUAAGCAGAAUAAUAAUUUAAUACCGUAAGUGAACUACACACAAAGCCUGAACCGCGAAACUACACAACAGAGGAUUGAGCAUCA
# B10: chr1:225611761:225611762:-_ENSG00000143815_ENST00000272163|hu_mus|hu_hu_hu_mus_True|1_38 (ssRNA)
# RNA: GGGAGUUCUACAGUCCGACGAUCCCAGGCCAUCGGCCUCUGACCACUUCACCCUCAACAAACUUCCUACUUGGCAUUUUCUAAAAUUAGUCUGGCCCAGGUUCCGGGGGAACUCCAGCCACUCCAGGACAGUCACCCGCACAGCAACAGAGGAUUGAGCAUCA
# B11: chr2:42472670:42472671:+_ENSG00000143924_ENST00000318522|hu_hu|FALSE|FALSE (ssRNA)
# RNA: GGGAGUUCUACAGUCCGACGAUCCGUGACUCAAGAGCUGACAGGCGAUCUUGAACAUCAGAAGUACUUGCAGCAGAAAUACUAUCAUCGAGACUGCCGGCGAAACCGUCCAUCUUGCGGGGAAAGCGCCGGGCUCCGGGCUUACAACAGAGGAUUGAGCAUCA
# B12: chr12:2981354:2981355:-_ENSG00000111206_ENST00000359843|hu_hu|FALSE|FALSE (ssRNA)
# RNA: GGGAGUUCUACAGUCCGACGAUCGCGGGAGCCCAGUCCAUCAGAACUCAUCUUUCGAAGCCACUGGAUGUUGGAUAGGCUAUUGUUGAUAGUGCAGCCUGCUGCCUCACCAUCUGCACAGGUCUCCCGUUUCUGCUCGCAAAGCAACAGAGGAUUGAGCAUCA
# B13: chr2:128510325:128510326:-_ENSMUSG00000014355_ENSMUST00000014499|mus_mus|FALSE|FALSE (ssRNA)
# RNA: GGGAGUUCUACAGUCCGACGAUCGUACACUGCCAGUGCCUGGCUUUUACUCCCUUUGCUCCAGAUAACCAUGUUCCCAGCCACAUAGAGCUCUUCAUCGUAGUCAGCUGCAUCUCCAAUCUCACUCACACCUUUUCUUAACUGCAACAGAGGAUUGAGCAUCA
# B14: 54674576_54675259_78_CDS_ENSG00000135486_ENST00000330752|human|control|control (ssRNA)
# RNA: GGGAGUUCUACAGUCCGACGAUCCUCAAAAUGGCUCCUCAGGCUCUCAUCAGUUGUUUCAAAGCUCAACCCUCCAAUGAAGAGCUUCCUCAGCUGUUCGGGCUCUUUAGGAGACUCUGACUUAGACAUGACGGCAGGGUGAAGCAACAGAGGAUUGAGCAUCA
# Target: T1, UNK ZnF1-3
# Experiment: nsRBNS (natural sequence RNA bind-n-seq); RBNS binding buffer (assumed for nsRBNS): 25 mM Tris pH 7.5, 150 mM KCl, 3 mM MgCl2, 0.01% Triton X-100, 500 ug/ml BSA, 20 U/ml SUPERase-In, 4 C; UNK is unkempt and MSI1 is Musashi-1; names of the RNAs are library labels; protein concentration not given here; high values mean tight binding
row,Binder,binding signal
1,B1,0.452 enrichment R
2,B2,1.01 enrichment R
3,B3,2.27 enrichment R
4,B4,0.782 enrichment R
5,B5,0.221 enrichment R
6,B6,1.01 enrichment R
7,B7,0.619 enrichment R
8,B8,0.476 enrichment R
9,B9,0.556 enrichment R
10,B10,1.18 enrichment R
11,B11,1.34 enrichment R
12,B12,0.653 enrichment R
13,B13,0.907 enrichment R
14,B14,0.995 enrichment R
